Assay [1] deals with T1, CTCF ΔN(13–33), GFP fusion (F3H) (mouse), Q61164.
T1 chain: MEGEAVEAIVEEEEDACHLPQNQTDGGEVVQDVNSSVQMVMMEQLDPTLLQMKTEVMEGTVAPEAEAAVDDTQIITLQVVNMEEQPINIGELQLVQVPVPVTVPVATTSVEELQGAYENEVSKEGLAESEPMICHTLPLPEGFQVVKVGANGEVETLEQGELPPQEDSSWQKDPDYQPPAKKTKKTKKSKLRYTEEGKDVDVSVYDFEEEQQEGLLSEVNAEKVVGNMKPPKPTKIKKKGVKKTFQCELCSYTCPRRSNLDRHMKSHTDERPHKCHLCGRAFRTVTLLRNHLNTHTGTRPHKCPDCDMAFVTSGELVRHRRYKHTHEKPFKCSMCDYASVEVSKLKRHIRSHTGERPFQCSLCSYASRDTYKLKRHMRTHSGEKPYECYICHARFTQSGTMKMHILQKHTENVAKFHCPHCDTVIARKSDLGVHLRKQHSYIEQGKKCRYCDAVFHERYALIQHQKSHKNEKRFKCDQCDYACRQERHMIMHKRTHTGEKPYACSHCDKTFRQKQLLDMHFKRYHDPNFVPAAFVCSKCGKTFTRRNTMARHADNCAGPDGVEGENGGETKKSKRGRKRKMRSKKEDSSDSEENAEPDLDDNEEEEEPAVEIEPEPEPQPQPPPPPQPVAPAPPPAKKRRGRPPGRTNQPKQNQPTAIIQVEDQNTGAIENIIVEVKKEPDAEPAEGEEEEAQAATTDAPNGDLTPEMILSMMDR
Kind of assay: fluorescent three-hybrid (F3H); GFP-tagged bait tethered to a LacO array by GFP nanobody–LacR in BHK-LacO cells; recruitment of mKate2-tagged prey read as Pearson correlation of green and red channels at the array; cells fixed 24 h after transfection. The note with it: remark: other sources report otherwise.

In assay [2] the target is T2, CTCF (mouse), GFP fusion tethered to the LacO array in the fluorescent three-hybrid assay (mouse), Q61164.
T2 chain: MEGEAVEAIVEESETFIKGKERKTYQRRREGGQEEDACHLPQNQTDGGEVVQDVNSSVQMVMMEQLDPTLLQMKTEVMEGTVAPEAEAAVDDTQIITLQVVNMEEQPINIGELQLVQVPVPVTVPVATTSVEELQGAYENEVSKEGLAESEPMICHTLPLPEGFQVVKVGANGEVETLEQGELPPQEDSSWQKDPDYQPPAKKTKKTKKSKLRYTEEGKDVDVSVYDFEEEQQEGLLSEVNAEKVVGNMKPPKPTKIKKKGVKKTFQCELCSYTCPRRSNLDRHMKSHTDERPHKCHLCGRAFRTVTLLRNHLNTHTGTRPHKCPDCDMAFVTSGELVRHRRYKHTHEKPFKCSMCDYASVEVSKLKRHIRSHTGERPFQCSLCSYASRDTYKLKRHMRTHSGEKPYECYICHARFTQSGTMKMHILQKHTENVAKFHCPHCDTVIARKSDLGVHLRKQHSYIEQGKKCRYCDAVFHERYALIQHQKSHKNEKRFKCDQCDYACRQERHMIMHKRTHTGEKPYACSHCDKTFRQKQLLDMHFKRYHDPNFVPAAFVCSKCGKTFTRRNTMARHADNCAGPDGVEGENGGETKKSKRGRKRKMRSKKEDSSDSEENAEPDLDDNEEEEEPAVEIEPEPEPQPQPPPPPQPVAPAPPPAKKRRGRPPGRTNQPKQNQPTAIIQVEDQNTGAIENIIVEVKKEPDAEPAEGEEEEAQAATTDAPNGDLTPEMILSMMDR
The assay is described as above. The note with it: remark: other sources report otherwise.

These are yes or no findings as the source states them, for the method shown. Sequences can lack the tags named with a protein.

B1: PDS5A (mouse), mKate2 fusion, Q6A026 1-1332 (protein)
chain: MDFTQPKPATALCGVVSADGKIAYPPGVKEITDKITTDEMIKRLKMVVKTFMDMDQDSEDEKQQYLPLALHLASEFFLRNPNKDVRLLVACCLADIFRIYAPEAPYTSHDKLKDIFLFITRQLKGLEDTKSPQFNRYFYLLENLAWVKSYNICFELEDCNEIFIQLFRTLFSVINNSHNTKVQMHMLDLMSSIIMEGDGVTQELLDSILINLIPAHKNLNKQSFDLAKVLLKRTVQTIEACIANFFNQVLVLGRSSVSDLSEHVFDLIQELFAIDPQLLLSVMPQLEFKLKSNDGEERLAVVRLLAKLFGSKDSDLATQNRPLWQCFLGRFNDIHVPVRLESVKFASHCLMNHPDLAKDLTEYLKVRSHDPEEAIRHDVIVTIITAAKRDLALVNDQLLGFVRERTLDKRWRVRKEAMMGLAQLYKKYCLHGEAGKEAAEKVSWIKDKLLHIYYQNSIDDKLLVEKIFAQYLVPHNLETEERMKCLYYLYASLDPNAVKALNEMWKCQNMLRSHVRELLDLHKQPTSEANCSAMFGKLMTIAKNLPDPGKAQDFVKKFNQVLGDDEKLRSQLELLISPTCSCKQADVCVREIARKLANPKQPTNPFLEMVKFLLERIAPVHIDSEAISALVKLMNKSIEGTADDEEEGVSPDSAIRSGLELLKVLSFTHPTSFHSAETYESLLQCLRMEDDKVAEAAIQIFRNTGHKIETDLPQIRSTLIPILHQKAKRGTPHQAKQAVHCIHAIFSNKEVQLAQIFEPLSRSLNADVPEQLITPLVSLGHISMLAPDQFASPMKSVVANFIVKDLLMNDRSTGEKNGKLWSPDEEVSPEVLAKVYLLRLLVRWLLGMKNNQSKSANSTLRLLSAMLVSEGDLTEQKRISKSDMSRLRLAAGSAIMKLAQEPCYHEIITPEQFQLCALVINDECYQVRQIFAQKLHKALVKLLLPLEYMAIFALCAKDPVKERRAHARQCLLKNISIRREYIKQNPMATEKLLSLLPEYVVPYMIHLLAHDPDFTRSQDVDQLRDIKECLWFMLEVLMTKNENNSHAFMKKMAENIKLTRDAQSPDESKTNEKLYTVCDVALCVINSKSALCNADSPKDPVLPMKFFTQPEKDFCNDKSYISEETRVLLLTGKPKPTGVLGTVNKPLSATGRKPYVRSAGTETGSNINANSELSPSAGSRSREQSSEASETGVSENEENPVRIISVTPVKNIDTVKNKEINSDQSTQGNISSDRGKKRIVTAAGAENIQKPDEKVDESGPPAPSKPRRGRRPKSESQGNATKNDDLNKPVSKGRKRAAGSQESLEAGNAKAPKLQDGAKKAVPAERQIDLQR
B1: in assay [1], the binding result is recorded as “no binding”.

B2: PDS5B (mouse), mKate2 fusion, Q4VA53 1-1446 (protein)
chain: MAHSKTRTNDGKITYPPGVKEISDKISKEEMVRRLKMVVKTFMDMDQDSEEEKELYLNLALHLASDFFLKHPDKDVRLLVACCLADIFRIYAPEAPYTSPDKLKDIFMFITRQLKGLEDTKSPQFNRYFYLLENIAWVKSYNICFELEDSNEIFTQLYRTLFSVINNGHNQKVHMHMVDLMSSIICEGDTVSQELLDTVLVNLVPAHKNLNKQAYDLAKALLKRTAQAIEPYITNFFNQVLMLGKTSISDLSEHVFDLILELYNIDSHLLLSVLPQLEFKLKSNDNEERLQVVKLLAKMFGAKDSELASQNKPLWQCYLGRFNDIHVPIRLECVKFASHCLMNHPDLAKDLTEYLKVRSHDPEEAIRHDVIVSIVTAAKKDILLVNDHLLNFVRERTLDKRWRVRKEAMMGLAQIYKKYSLQSAAGKDAAKQISWVKDKLLHIYYQNSIDDRLLVERIFAQYMVPHNLETTERMKCLYYLYATLDLNAVKALNEMWKCQNLLRHQVKDLLDLIKQPKTDASVKAIFSKVMVITRNLPDPGKAQDFMKKFTQVLEDDEKIRKQLEALVSPTCSCKQAEGCVREITKKLGNPKQPTNPFLEMIKFLLERIAPVHIDTESISALIKQVNKSIDGTADDEDEGVPTDQAIRAGLELLKVLSFTHPISFHSAETFESLLACLKMDDEKVAEAALQIFKNTGSKIEEDFPHIRSALLPVLHHKSKKGPPRQAKYAIHCIHAIFSSKETQFAQIFEPLHKSLDPSNLEHLITPLVTIGHIALLAPDQFAAPLKSLVATFIVKDLLMNDRLPGKKTTKLWVPDEEVSPETMVKIQAIKMMVRWLLGMKNNHSKSGTSTLRLLTTILHSDGDLTEQGKISKPDMSRLRLAAGSAIVKLAQEPCYHEIITLEQYQLCALAINDECYQVRQVFAQKLHKGLSRLRLPLEYMAICALCAKDPVKERRAHARQCLVKNITVRREYLKQHAAVSEKLLSLLPEYVVPYTIHLLAHDPDYVKVQDIEQLKDVKECLWFVLEILMAKNENNSHAFIRKMVENIKQTKDAQGPDDTKMNEKLYTVCDVAMNIIMSKSTTYSLESPKDPVLPARFFTQPDKNFSNTKNYLPPEMKSFFTPGKPKTANVLGAVNKPLSSAGKQSQTKSSRMETVSNASSSSNPSSPGRIKGRLDSSEMDHSENEDYTMSSPLPGKKSDKREDPDLSELEKPRSRKKAPVTDPEEKLGMDDLTKLVQEQKPKGSQRGRKRGRTASDSDEQQWPEEKRHKEELLENEDEQNSPPKKGKRGRPPKPLGGGTSKEEPTMKTSKKGNKKKLVPPVVDDDEEEERQIGNTEHKSKSKQHRTSKRAQQRAESPETSAVESTQSTPQKGRGRPSKAPSPSQPPKKIRVGRSKQVATKENDSSEEMDVLQASSPVSDDTTQEGAEEEDISVGNVRRRSSKRERR
In the case of B2, the binding result in assay [2] is on record as “no binding”.

The values are drawn from publication PMC7645679.
